T1: human LIFR-ECD (Homo sapiens, UniProt P42702)
T1 construct: The extracellular region (1-833 a.a.) of recombinant human LIFR protein; His tag; made in house; host or cells: HEK293 (transient transfection, purified from culture supernatant)
T1 sequence (P42702 45-833): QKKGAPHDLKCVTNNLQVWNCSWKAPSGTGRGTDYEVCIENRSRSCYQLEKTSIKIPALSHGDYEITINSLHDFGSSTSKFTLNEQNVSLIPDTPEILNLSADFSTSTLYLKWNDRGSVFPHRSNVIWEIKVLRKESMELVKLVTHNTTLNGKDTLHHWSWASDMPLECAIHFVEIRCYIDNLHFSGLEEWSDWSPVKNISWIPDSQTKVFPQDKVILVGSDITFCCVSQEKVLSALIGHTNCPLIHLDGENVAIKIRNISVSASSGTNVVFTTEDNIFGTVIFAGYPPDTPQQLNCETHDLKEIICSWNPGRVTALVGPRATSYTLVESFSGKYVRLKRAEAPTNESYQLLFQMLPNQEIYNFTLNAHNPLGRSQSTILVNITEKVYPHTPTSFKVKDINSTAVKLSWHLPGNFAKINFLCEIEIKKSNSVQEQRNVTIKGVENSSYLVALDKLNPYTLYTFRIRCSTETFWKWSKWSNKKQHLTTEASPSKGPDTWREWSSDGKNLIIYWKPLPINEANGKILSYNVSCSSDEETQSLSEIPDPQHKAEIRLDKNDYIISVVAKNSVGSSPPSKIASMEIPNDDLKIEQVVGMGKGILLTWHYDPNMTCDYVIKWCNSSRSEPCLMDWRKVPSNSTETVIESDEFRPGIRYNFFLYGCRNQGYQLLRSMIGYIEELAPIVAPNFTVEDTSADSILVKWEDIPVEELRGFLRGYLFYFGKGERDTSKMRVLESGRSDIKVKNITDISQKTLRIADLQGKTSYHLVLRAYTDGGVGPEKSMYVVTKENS

T2: human LIFR/gp130 heterodimer expressed on the surface of 293T cells (Homo sapiens, UniProt P42702)
T2 construct: expressed in transfected cells; host or cells: HEK293T, lentiviral transduction (lenti-LIFR/gp130), puromycin selection, monoclonal line
T2 sequence (P42702 45-1097): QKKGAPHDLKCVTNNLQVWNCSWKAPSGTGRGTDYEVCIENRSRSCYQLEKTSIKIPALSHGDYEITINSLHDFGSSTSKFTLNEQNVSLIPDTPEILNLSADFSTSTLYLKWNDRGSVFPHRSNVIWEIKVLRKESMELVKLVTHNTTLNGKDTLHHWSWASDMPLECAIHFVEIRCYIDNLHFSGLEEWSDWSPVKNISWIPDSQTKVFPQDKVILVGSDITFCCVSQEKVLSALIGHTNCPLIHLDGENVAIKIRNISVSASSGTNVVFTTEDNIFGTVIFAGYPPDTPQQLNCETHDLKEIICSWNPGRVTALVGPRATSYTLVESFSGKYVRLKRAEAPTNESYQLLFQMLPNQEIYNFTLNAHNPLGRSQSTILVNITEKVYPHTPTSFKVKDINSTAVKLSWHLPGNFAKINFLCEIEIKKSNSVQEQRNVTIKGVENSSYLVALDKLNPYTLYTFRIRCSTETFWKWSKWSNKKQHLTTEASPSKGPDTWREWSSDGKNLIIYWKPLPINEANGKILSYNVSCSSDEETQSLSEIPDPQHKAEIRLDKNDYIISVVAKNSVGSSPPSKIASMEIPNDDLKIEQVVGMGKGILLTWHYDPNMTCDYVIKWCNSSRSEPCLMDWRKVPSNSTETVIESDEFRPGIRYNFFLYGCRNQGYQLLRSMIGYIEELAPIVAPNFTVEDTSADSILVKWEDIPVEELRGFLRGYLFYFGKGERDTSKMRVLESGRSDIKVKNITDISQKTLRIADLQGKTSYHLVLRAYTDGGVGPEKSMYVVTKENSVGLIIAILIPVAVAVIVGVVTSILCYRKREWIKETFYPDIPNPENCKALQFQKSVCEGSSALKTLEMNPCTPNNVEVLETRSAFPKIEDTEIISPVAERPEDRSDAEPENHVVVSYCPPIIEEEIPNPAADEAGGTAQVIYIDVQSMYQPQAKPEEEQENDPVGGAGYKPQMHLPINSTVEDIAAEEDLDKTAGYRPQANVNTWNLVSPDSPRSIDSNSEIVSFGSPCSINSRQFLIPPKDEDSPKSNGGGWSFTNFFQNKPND

B1: PR301177: fully human anti-LIFR IgG1 antibody; VH SEQ ID NO: 53, VL SEQ ID NO: 66, HC SEQ ID NO: 77, LC SEQ ID NO: 90 (antibody)
heavy: QVQLVESGGGVVQPGRSLRLSCVASGFTFSSYGMNWVRQAPGKGLDWVTVIWFDGSNKYYADSVKGRFTISRDNSKNTLYLQMNSLRAEDTAMYYCARGERTLDLWGQGTLVTVSS[here human IgG1 constant region without letters]
light: DIQMTQSPSTLSASVGDRVTITCRASQSISSWLAWYQQKPGKAPKLLIYKASSLESGVPSRFSGSGSGTEFSFTISSLQPDDFATYYCQQYKSFSPGGLTFGGGTKVEIKRTVAAPSVFIFPPSDEQLKSGTASVVCLLNNFYPREAKVQWKVDNALQSGNSQESVTEQDSKDSTYSLSSTLTLSKADYEKHKVYACEVTHQGLSSPVTKSFNRGEC
B2: PR301153: fully human anti-LIFR IgG1 antibody; VH SEQ ID NO: 52, VL SEQ ID NO: 65, HC SEQ ID NO: 76, LC SEQ ID NO: 89 (antibody)
heavy: QVQLVESGGGVVQPGRSLRLSCAASGFTFSSYGMDWVRQAPGKGLEWVAVIWYDGSNKFYADSVRGRFTISRDNSQNTLYLQMNSLRAEDTAVYYCARELWFGELLSPFDFWGQGTLVTVSS[here human IgG1 constant region without letters]
light: [here about 100 residues without letters][here about 120 residues without letters]
B3: PR301160: fully human anti-LIFR IgG1 antibody; VH SEQ ID NO: 51, VL SEQ ID NO: 64, HC SEQ ID NO: 75, LC SEQ ID NO: 88 (antibody)
heavy: B2 heavy with F109L
light: [here about 100 residues without letters][here about 120 residues without letters]
B4: PR301195: fully human anti-LIFR IgG1 antibody; VH SEQ ID NO: 54, VL SEQ ID NO: 67, HC SEQ ID NO: 78, LC SEQ ID NO: 91 (antibody)
heavy: QVQLVESGGGVVQPGRSLRLSCAASGFTFSSYGMNWVRQAPGKGLEWVAVIWFDGSIKYYADSVKGRFTISRDNSKNTLYLQMNSLRAEDTAIYYCARGQLVQDFWGRGTLVTVSS[here human IgG1 constant region without letters]
light: DIQMTQSPSTLSASVGDRVTITCRASQSISSWLAWYQQKPGKAPNLLMYKASNLESGVPSRFSGSGSGTEFTLTITSLQPDDFASYYCQQYKSNPLTFGGGTKVEIKRTVAAPSVFIFPPSDEQLKSGTASVVCLLNNFYPREAKVQWKVDNALQSGNSQESVTEQDSKDSTYSLSSTLTLSKADYEKHKVYACEVTHQGLSSPVTKSFNRGEC
B5: PR301218: fully human anti-LIFR IgG1 antibody; VH SEQ ID NO: 57, VL SEQ ID NO: 67, HC SEQ ID NO: 81, LC SEQ ID NO: 91 (antibody)
heavy: B4 heavy with N35H, I57V
light: B4 light
B6: PR301196: fully human anti-LIFR IgG1 antibody; VH SEQ ID NO: 54, VL SEQ ID NO: 68, HC SEQ ID NO: 78, LC SEQ ID NO: 92 (antibody)
heavy: B4 heavy
light: B4 light with S56N, P59S, S85T
B7: PR301215: fully human anti-LIFR IgG1 antibody; VH SEQ ID NO: 56, VL SEQ ID NO: 67, HC SEQ ID NO: 80, LC SEQ ID NO: 91 (antibody)
heavy: B4 heavy with N35H
light: B4 light

Consider 7 molecules from US20250136702A1, “HUMAN LIFR ANTIGEN BINDING PROTEIN, PREPARATION METHOD THEREFOR, AND APPLICATION THEREOF” (NONA BIOSCIENCES (SUZHOU) CO., LTD., priority 2020, published 2025).

Substitutions are numbered along the chain they refer to.

In the first test the target is T1, human LIFR-ECD. Description: ELISA binding of antibodies to human LIFR-ECD at the protein level.
Settings: not given
How it is done: (§1) The binding ability of the 15 antibodies prepared in examples 1-4 of the present invention to the LIFR-ECD protein was detected based on the ELISA assay method. The binding affinity of different antibodies was determined by comparing their dose response binding curves to LIFR-ECD protein. The specific experimental process is as follows: First, human LIFR-ECD, monkey LIFR-ECD and mouse LIFR-ECD proteins are diluted to a concentration of 1 μg/mL, added to a 96-well plate (100 μL per well) and placed at 4° C. overnight. The 96-well plates were washed three times with PBST solution and then placed at 37° C. for 1 h with the addition of 2% BSA in PBS solution. Antibody seris dilution is prepared and (100 nM, 10-fold-dilution), added to a 96-well plate and incubate at 37° C. for 1 h. After washing three times with PBST solution, add anti-human IgG Fc-HRP secondary antibody (for 5000× dilution) and incubate at 37° C. for 30-60 min. After washing three times with PBST solution, add TMB color development solution for 5-15 minutes, and then add termination solution to ternimate the color development.
Background: An ELISA detects its analyte on a solid surface through an enzyme-linked reagent.
For the molecule B1, the “binding ability to human LIFR-ECD protein (in words)” value is listed as “have binding ability”.

In the case of B2, the “binding ability to human LIFR-ECD protein (in words)” value is listed as “have binding ability”.

As to B3, the “binding ability to human LIFR-ECD protein (in words)” value is listed as “have binding ability”.

Take B4: the “binding ability to human LIFR-ECD protein (in words)” value is given as “have binding ability”.

For B5, the “binding ability to human LIFR-ECD protein (in words)” value is listed as “have binding ability”.

With B6, the “binding ability to human LIFR-ECD protein (in words)” value is recorded as “have binding ability”.

Consider B7, for which the “binding ability to human LIFR-ECD protein (in words)” value is “have binding ability”.

The test system of another test is monkey LIFR-ECD. Description: ELISA binding of antibodies to monkey LIFR-ECD at the protein level.
Settings: not given
As to the method: as §1
On to B1, for which the “binding ability to monkey LIFR-ECD protein (in words)” value was “have binding ability”.

Regarding B2, the “binding ability to monkey LIFR-ECD protein (in words)” value is listed as “have binding ability”.

As for B3, the “binding ability to monkey LIFR-ECD protein (in words)” value is reported as “have binding ability”.

Take B4: the “binding ability to monkey LIFR-ECD protein (in words)” value is “have binding ability”.

B5: the “binding ability to monkey LIFR-ECD protein (in words)” value was “have binding ability”.

On to B6, for which the “binding ability to monkey LIFR-ECD protein (in words)” value is reported as “have binding ability”.

For B7, the “binding ability to monkey LIFR-ECD protein (in words)” value is “have binding ability”.

Another test concerns the target T2, human LIFR/gp130 heterodimer expressed on the surface of 293T cells. In words: Flow cytometry blocking of huLIF binding to HEK293T-huLIFR/gp130 cells. The note with it: compared with the negative control hIgG1. How it is done:
The ability of the 15 antibodies prepared in examples 1-4 of the present invention to block the binding of the huLIF protein to the human LIFR/gp130 heterodimer expressed on the surface of 293T cells was tested based on flow cytometry. The blocking ability was determined by comparing the dose response curves of different antibodies blocking the binding of huLIF protein to HEK293T-huLIFR/gp130 cells.
The specific experimental process is: (1) First determine the EC80 concentration of huLIF protein binding to HEK293T-huLIFR/gp130 cells. Label the huLIF protein to obtain the huLIF-biotin protein; (2) make serise diluton of test antibodies and incubate with HEK293T-huLIFR/gp130 cells and huLIF protein (final concentration is the value of EC80) at 4° C. After washing three times with PBS, incubate with APC-labeled Strepavidin secondary antibody for 30 minutes at 4° C. After washing three times with PBS, resuspend the cells with 100 μL FACS buffer; (3) Use flow cytometry to measure the four-channel median fluorescenceDegree value. Use the logarithm of the antibody concentration to base 10 as the abscissa, and plot the four-channel median fluorescence value on the ordinate to compare the IC50 and the peak value of the curve.
(In general: In flow cytometry, cells or beads pass a laser one at a time.)
For the molecule B1, the “block huLIF binding to HEK293T-huLIFR/gp130 (in words)” value (from here on “block huLIF binding”) was “significantly block”.

Take B2: the “block huLIF binding” value is given as “significantly block”.

For the molecule B3, the “block huLIF binding” value was “significantly block”.

As to B4, the “block huLIF binding” value is on record as “significantly block”.

Turning to B5, the “block huLIF binding” value is recorded as “significantly block”.

Regarding B6, the “block huLIF binding” value is given as “significantly block”.

B7: the “block huLIF binding” value was “significantly block”.
